Measurements taken from patent US11178870B2 (priority 2017, dated 2021).

How the values were obtained:
Phytophthora infestans = format: in vivo; details: Table 7, Test F
[1] = system: Colletotrichum orbiculare; details: 250 ppm sprayed (2.5 ml/pot) before inoculation; assessed 6 to 10 days after inoculation
Magnaporthe grisea = format: in vivo; details: Table 7, Test A

Row | Compound | control value, Test F (late blight on tomato) (Phytophthora infestans) | control value, Test H (anthracnose on cucumber) [1] | control value, Test A (blast on rice) (Magnaporthe grisea)
1 | CCn1c(-c2c(F)cccc2F)c(-c2sccc2C)ccc1=O [Compound 359] | H (H shows the control value more than 50%) | H (H shows the control value more than 50%) | –
2 | CCn1c(-c2c(F)cccc2F)c(-c2sccc2Br)ccc1=O [Compound 364] | L (L shows the control value of 50% or less) | H (H shows the control value more than 50%) | H (H shows the control value more than 50%)
